# Measured values taken from the supplement of paper PMC8728848.
# The other results are listed elsewhere or left out.
# B1: STA (Solanum tuberosum), Q9S8M0 (protein)
# chain: NASPPSPSPLPYPQCGMKKGGGKCIKTGECCSIWGWCGTTNAYCSPGYCQKQCPGPYPEGRCGWQANGKSCPTGTGQCCSNGGWCGTTSDYCASKNCQSQCKLPSPPPPPPPPSPPPPSPPSPPPPSPPPPPPPSPPPPSPPPPSPSPPPPPASPPPPPPALPYPQCGIKKGGGKCIKTGECCSIWGWCGTTNAYCSPGYCQKQCPGPYPEGRCGWQANGKSCPTGTGHCCSNAGWCGTTSDYCAPVNCQAQCNTTTLTSPIKNRMRGIESFMLNVV
# Key:
# Test in all cases: glycan array binding signal (z-score within array); higher = stronger binding
# Settings in all cases: glycan notation: IUPAC condensed, linker removed
# [1] = target: Gal(b1-3)GalNAc
# Outline: (§1)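 The binding signal is a Z-score computed within each array and averaged over linkers. Arrays of the same protein sequence at different concentrations or buffers were also averaged together. Data originate from 3228 arrays in the Consortium for Functional Glycomics database, kept only where the protein sequence was available.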
# [2] = target: Gal(b1-3)GalNAc(b1-3)Gal(a1-4)Gal(b1-4)Glc
# Outline: as §1
# [3] = target: Gal(b1-3)GalNAc(b1-3)Gal(b1-4)Glc
# Outline: as §1
# [4] = target: Gal(b1-3)GalNAc(b1-3)Gal(b1-4)GlcNAc
# Outline: as §1
# [5] = target: Gal(b1-3)GalNAc(b1-4)Gal(b1-4)Glc
# Outline: as §1
# [6] = target: Gal(b1-3)GalNAc(b1-4)[Neu5Ac(a2-3)]Gal(b1-4)Glc
# Outline: as §1
# [7] = target: Gal(b1-3)GlcNAc(b1-3)Gal(b1-3)GlcNAc
# Outline: as §1
# [8] = target: Gal(b1-3)[Fuc(a1-4)]GlcNAc
# Outline: as §1
# [9] = target: Gal(b1-3)[Fuc(a1-4)]GlcNAc(b1-3)Gal(b1-3)[Fuc(a1-4)]GlcNAc
# Outline: as §1
# [10] = target: Gal(b1-3)[Fuc(a1-4)]GlcNAc(b1-3)Gal(b1-4)GlcNAc
# Outline: as §1
# [11] = target: Gal(b1-3)[Fuc(a1-4)]GlcNAc(b1-3)Gal(b1-4)[Fuc(a1-3)]GlcNAc
# Outline: as §1
# [12] = target: Gal(b1-3)[GlcNAc(b1-6)]GalNAc
# Outline: as §1
# [13] = target: Gal(b1-3)[GlcNAc(b1-6)]GlcNAc
# Outline: as §1
# [14] = target: Gal(b1-3)[Neu5Ac(a2-6)]GalNAc
# Outline: as §1
# [15] = target: Gal(b1-3)[Neu5Ac(a2-6)]GlcNAc
# Outline: as §1
# [16] = target: Gal(b1-3)[Neu5Ac(a2-6)]GlcNAc(a1-4)Gal(b1-4)Glc
# Outline: as §1
# [17] = target: Gal(b1-3)[Neu5Ac(b2-6)]GlcNAc
# Outline: as §1
# [18] = target: Gal(b1-4)GalNAc(a1-3)[Fuc(a1-2)]Gal(b1-4)GlcNAc
# Outline: as §1
# [19] = target: Gal(b1-4)GalNAc(b1-3)[Fuc(a1-2)]Gal(b1-4)GlcNAc
# Outline: as §1
# [20] = target: Gal(b1-4)Glc
# Outline: as §1
# [21] = target: Gal(b1-4)Glc6S
# Outline: as §1
# [22] = target: Gal(b1-4)GlcNAc
# Outline: as §1
# [23] = target: Gal(b1-4)GlcNAc(b1-2)Man(a1-3)[Gal(b1-4)GlcNAc(b1-2)Man(a1-6)]Man(b1-4)GlcNAc(b1-4)GlcNAc
# Outline: as §1
# [24] = target: Gal(b1-4)GlcNAc(b1-3)Gal(b1-3)GlcNAc
# Outline: as §1
# [25] = target: Gal(b1-4)GlcNAc(b1-3)Gal(b1-4)Glc
# Outline: as §1
# [26] = target: Gal(b1-4)GlcNAc(b1-3)Gal(b1-4)GlcNAc
# Outline: as §1
# [27] = target: Gal(b1-4)GlcNAc(b1-3)Gal(b1-4)GlcNAc(b1-3)Gal(b1-4)GlcNAc
# Outline: as §1
# [28] = target: Gal(b1-4)GlcNAc(b1-3)Gal(b1-4)[Fuc(a1-3)]GlcNAc(b1-3)Gal(b1-4)[Fuc(a1-3)]GlcNAc
# Outline: as §1
# [29] = target: Gal(b1-4)GlcNAc(b1-3)GalNAc
# Outline: as §1
# [30] = target: Gal(b1-4)GlcNAc(b1-3)[Gal(b1-4)GlcNAc(b1-6)]GalNAc
# Outline: as §1
# [31] = target: Gal(b1-4)GlcNAc(b1-6)GalNAc
# Outline: as §1
# [32] = target: Gal(b1-4)GlcNAc(b1-6)[Gal(b1-3)]GalNAc
# Outline: as §1
# [33] = target: Gal(b1-4)GlcNAc(b1-6)[Gal(b1-3)]GlcNAc
# Outline: as §1
# [34] = target: Gal3S(b1-3)GalNAc
# Outline: as §1
# [35] = target: Gal3S(b1-3)GlcNAc
# Outline: as §1
# [36] = target: Gal3S(b1-3)[Fuc(a1-4)]GlcNAc
# Outline: as §1
# [37] = target: Gal3S(b1-4)Glc
# Outline: as §1
# [38] = target: Gal3S(b1-4)Glc6S
# Outline: as §1
# [39] = target: Gal3S(b1-4)GlcNAc
# Outline: as §1
# [40] = target: Gal3S(b1-4)GlcNAc6S
# Outline: as §1
# [41] = target: Gal3S6S(b1-4)GlcNAc
# Outline: as §1
# [42] = target: Gal3S6S(b1-4)GlcNAc6S
# Outline: as §1
# [43] = target: Gal4S(b1-4)GlcNAc
# Outline: as §1
# [44] = target: Gal4S6S(b1-4)GlcNAc
# Outline: as §1
# [45] = target: Gal6S(b1-4)Glc
# Outline: as §1
binder,measurement,setting,value
B1,glycan array binding signal (z-score),[1],-0.586
same,glycan array binding signal (z-score),[2],-0.588
same,glycan array binding signal (z-score),[3],-0.586
same,glycan array binding signal (z-score),[4],2.07
same,glycan array binding signal (z-score),[5],-0.595
same,glycan array binding signal (z-score),[6],-0.576
same,glycan array binding signal (z-score),[7],-0.587
same,glycan array binding signal (z-score),[8],-0.59
same,glycan array binding signal (z-score),[9],-0.583
same,glycan array binding signal (z-score),[10],-0.584
same,glycan array binding signal (z-score),[11],-0.59
same,glycan array binding signal (z-score),[12],-0.587
same,glycan array binding signal (z-score),[13],-0.58
same,glycan array binding signal (z-score),[14],-0.584
same,glycan array binding signal (z-score),[15],-0.574
same,glycan array binding signal (z-score),[16],-0.594
same,glycan array binding signal (z-score),[17],-0.57
same,glycan array binding signal (z-score),[18],1.81
same,glycan array binding signal (z-score),[19],1.88
same,glycan array binding signal (z-score),[20],-0.586
same,glycan array binding signal (z-score),[21],-0.533
same,glycan array binding signal (z-score),[22],1.88
same,glycan array binding signal (z-score),[23],-0.538
same,glycan array binding signal (z-score),[24],-0.578
same,glycan array binding signal (z-score),[25],1.35
same,glycan array binding signal (z-score),[26],1.77
same,glycan array binding signal (z-score),[27],2.26
same,glycan array binding signal (z-score),[28],-0.587
same,glycan array binding signal (z-score),[29],-0.564
same,glycan array binding signal (z-score),[30],1.84
same,glycan array binding signal (z-score),[31],1.9
same,glycan array binding signal (z-score),[32],1.32
same,glycan array binding signal (z-score),[33],1.97
same,glycan array binding signal (z-score),[34],-0.559
same,glycan array binding signal (z-score),[35],-0.54
same,glycan array binding signal (z-score),[36],-0.555
same,glycan array binding signal (z-score),[37],-0.501
same,glycan array binding signal (z-score),[38],-0.462
same,glycan array binding signal (z-score),[39],1.52
same,glycan array binding signal (z-score),[40],1.94
same,glycan array binding signal (z-score),[41],-0.521
same,glycan array binding signal (z-score),[42],1.24
same,glycan array binding signal (z-score),[43],1.95
same,glycan array binding signal (z-score),[44],-0.531
same,glycan array binding signal (z-score),[45],-0.553
